Laboratory results: PubChem BioAssay (NCI)
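These data come from cells grown in 96-well plates and exposed to compound for 48 hours at five concentrations. The concentration for 50% growth inhibition is given as GI50. The concentration for full growth arrest is given as TGI.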

tested on: NCI-H322M lung; assay: inhibition of tumour cell growth, NCI panel, 48 h

| SMILES | GI50 [µM] | TGI [µM] |
| --- | --- | --- |
| O=P(O)(O)C(O)(Cn1ccnc1)P(=O)(O)O | > 79.7 | > 100 |
| COc1cc(-c2c3c(cc4c2OCO4)[C@@H](Nc2ccc4c(c2)Cc2cc(N[C@@H]5c6cc7c(cc6C(c6cc(OC)c(O)c(OC)c6)[C@H]6C(=O)OC[C@H]56)OCO7)ccc2-4)[C@H]2COC(=O)[C@@H]2C3)cc(OC)c1O (some centres undefined) |  | > 100 |
| c1ccc2c(c1)N=C(c1cccc3ccccc13)CC(c1cccc3ccccc13)S2 (centres undefined) |  | 28.9 |
| CN(C)c1nc(=NCc2ccccn2)ss1 |  | > 10 |
| C=C1CC=CC(C)(C)C1C/C=C(\C)C(O)CBr (centres undefined) |  | > 100 |
| C=CCOc1c(Br)cc(Br)cc1Br | 12.3 | 94.2 |
| Cc1ccc(-n2cc(-c3ccc(Cl)cc3)c3c2N=CN2NC(c4ccco4)=NC32)cc1 (centres undefined) |  | > 100 |
| CC[P+](C#Cc1ccccc1)(c1ccccc1)c1ccccc1 |  | 9.79 |
| O=c1oc2ccccc2c2nc3ccccc3cc12 |  | > 100 |
| COP(=O)(CC(=O)C1OC(OCc2ccccc2)C(OCc2ccccc2)C(OCc2ccccc2)C1OCc1ccccc1)OC (centres undefined) |  | > 100 |
| COc1ccc(C2C(C#N)=C(N)OC3=C2CCCc2ccc(F)cc23)cc1OC (centres undefined) | 22.2 | 47.3 |
| CCOC(=O)/C(=C/c1ccco1)P(=O)(OCC)OCC |  | > 100 |
| Cn1c(N)nc2c(nc(OCc3ccccc3)n2C2OC(CO)C(O)C2O)c1=O (centres undefined) |  | > 100 |
| O=c1cc(-c2ccccc2F)[nH]c2cc3c(cc12)OCO3 |  | > 100 |
| O=C1c2ccccc2-c2c1c1ccccc1c(=O)n2CCNCCCNCCn1c2c(c3ccccc3c1=O)C(=O)c1ccccc1-2 | 0.0231 | 0.228 |
| CC(O)CN1C(=O)NC(Cc2ccccc2)C1=O (centres undefined) |  | > 100 |
| Cc1cccc(NC(Nc2cccc(C)c2)=C(C(Cl)=C(Cl)Cl)[N+](=O)[O-])c1 |  | > 74.3 |
| CCOC(=O)C(NC(=O)c1ccc(N=NN(C)C)cc1)C(C)C (centres undefined) |  | > 100 |
| CCOC(=O)C(C)NC(=O)N(C)C12CC3CC(CC(C3)C1)C2 (centres undefined) |  | > 500 |

| SMILES | GI50 [µM] | TGI [µM] |
| --- | --- | --- |
| COc1cc(/C=C2\CC3C4CC=C5CC(N6CCCC6)CC[C@]5(C)C4CC[C@]3(C)C2OC(C)=O)ccc1OCCN1CCCC1 (some centres undefined) | 7.63 | 20.4 |
| NC(=S)N=Nc1c(O)cc(Nc2ccc(Cl)cc2Cl)c2ccccc12 |  | > 100 |
| O=CN(O)CC(=O)O |  | > 100 |
| O=S1(=O)c2ccccc2NC(=S)N1c1ccccc1 |  | > 100 |
| CCCS(=O)(=O)c1nc(NC2CC2)cc(-c2ccc3c(ccn3C3CC(C)(C)NC(C)(C)C3)c2)n1 | 1.72 | 3.25 |
| COc1ccc(C2=NC(C)(C)CO2)cc1 |  | > 100 |
| CCCNCc1cc(C)cc2c1nc(N1CCNCC1)n2Cc1cc(C)c(F)c(C)c1 | 5.88 | 18.9 |
| COc1ccc(NC2=C(Br)C(=O)C(C)=C(C)C2=O)cc1 | 14.6 | 27.8 |
| COC(=O)/C=C\S/C(=C(/c1ccccc1)n1ccc(C(=O)OC)n1)c1ccccc1 |  | > 100 |
| C=C1C(=O)O[C@H]2[C@H]1CC/C(COC(=O)c1cc3cc(OC)ccc3[nH]1)=C\CC[C@@]1(C)O[C@@H]21 | 1.88 | 4.56 |
| CCN(CC)CCCNc1ccc([N+](=O)[O-])c2nc3ccc(OC)cc3c(NCCCN(CC)CC)c12 |  | 3.08 |
| COC(=O)c1cc(C(=O)OC)cc(-c2ccc3c(c2)-c2nc4c(c(-c5ccc(OC)cc5)c2CC3)CCc2ccc(-c3cc(C(=O)OC)cc(C(=O)OC)c3)cc2-4)c1 |  | 30.5 |
| COc1cc2c3c(n(C)c(=O)c2cc1OC)-c1cc2c(cc1/C3=C/CCCCBr)OCO2 |  | > 100 |
| O=C(Nc1ccc(S(=O)(=O)N[C@@H](C(=O)O)c2ccccc2)cc1)c1ccc(F)cc1 |  | > 100 |
| COc1ccc(/C=N/Nc2nc3ccccc3c(=O)n2-c2ccccc2)c(OCc2ccccc2)c1 |  | > 100 |
| Cc1noc(C)c1-c1ccc2[nH]c(=O)n3c2c1OC[C@@H]3c1ccccn1 | 5.72 | > 100 |
| CC(C)(C)C1(O)Cc2ccccc2C(=O)O1 (centres undefined) |  | > 100 |
| Cc1ncc(NC(=O)c2ccc(CN3CCN(C)CC3)c(C(F)(F)F)c2)cc1Nc1nccc(-c2cccnc2)n1 | 17.3 | 31.1 |
| CCOC(=O)c1ccc(C(=O)/C(C(=O)OC(C)(C)C)=C2\CCCN2C)n1C |  | > 100 |
